Read counts are not given, so values of variants with three or more changes are uncertain.

The record followed here is the RNAGym collection of RNA variant scans (doi:10.7554/elife.90254).

B1: OR4K15 (parent)
chain: GUUAACGGUCAUAGGCCAUGGAAACUAGGAGCACCAUUUCGCUGCCAGUGAAGAAAUGAACAAAGAAAAUCUGGGCCAGGCAGGCAUCAAAAGAAAUAGUCUUGCGCUCAACCAGAAAGUCUGUAAUCAUUUUAAGGGUA

Variants of B1 are the subject of this series. Description: self-cleavage, relative activity (ratio to wild type); higher = more cleavage; in vitro, sequencing; the parent is a self-cleaving ribozyme.
On to U2C U38C A60G U72C G75C, for which the self-cleavage stood at 0.24. Under U2C A86G U127A stands 1.57; under U2C G7U A24G A55G A86G A92U U127C, 0.66; under U3C A36U A96G A116C, 0.49. Next, A4G A56G A59G A66G A111U A125G U127C: 0.03; U3C U9C U87C: 1.04; A4G U39C U49C A67U: 1.05. In the case of U3C A22G A96G, the self-cleavage was 0.58. As for U2C U9A A69U A126C, the self-cleavage stood at 0.44.

For U3A A11C A59G A63G A118G, the self-cleavage amounted to 0.71. Under A4G A18G U100C stands 1.41.

Regarding U3A U26C A82U, the self-cleavage was 0.24. For U3A A66G G75A A78U, the self-cleavage came to 0.08. Under U3C A47G A55G stands 0.61. Regarding A4G A94U U102C, the self-cleavage was 1.41. Next, U2C A94G A111G: 0.02. For U2C U38C A56G A90G, the self-cleavage was 1.42. Under A4G U108A U131C stands 0.05; under A4G A18G U19C A33G A92G A95G U130C, 0.81; under U3A A30G U100C, 0.69. As for U2C G99A G106U U130G, the self-cleavage was determined as 0. Take A4G A23G U38A A51U U127A: the self-cleavage amounted to 2.44. As for U3C A5G U9C A33U A129G, the self-cleavage is 0.74.

For the variant A4G A30G A63G C121U, the self-cleavage is 1.83. As to A4G U43C G83A, the self-cleavage came to 1.01. Consider A4G A22U A95U, for which the self-cleavage was 1.74. With U3C A13U U38C A64G U120C, the self-cleavage was 1.13. For the variant U2G A11G U39C A63G, the self-cleavage worked out at 0.35. For A4G U38C A62G U130C, the self-cleavage worked out at 0.34. As to A4G A51U A52C, the self-cleavage turned out to be 1.29. On to A4G U49C U139G, for which the self-cleavage amounted to 1.19.

Consider U3A A54G A82G A92G U127A, for which the self-cleavage came to 0.18. Under U3A A5C A64G U87C A117G U130C stands 1.13; under U3C C6U A24G U102C, 1.44; under A4G A116G U132G, 0.3. Next, U3C U39C G48A U49A A52G: 1.27; U3C A24G U38A: 1.12.

U2C U12A A78U A116G: the self-cleavage was found to be 0.2. For A4G A5G A23G A67G, the self-cleavage is 0.46. As to U2C A110U U132C, the self-cleavage was 0.82. For U2C U102C U132A, the self-cleavage turned out to be 1.14. As for U2C A69G A92G A135G, the self-cleavage worked out at 1.12.

For the variant A4G A66G U131C, the self-cleavage came to 0.95. Under U3C U9C A36G A59G stands 0.21. On to U2C A69G A98G, for which the self-cleavage was 0.49. Consider U3C A24G A60U A64G A118G, for which the self-cleavage is 0.59. Regarding A4G G29A U130A, the self-cleavage amounted to 1.06.

With U3A A4G A54U A67G, the self-cleavage worked out at 0.76. Consider U3A A94G U122C, for which the self-cleavage is 2.

Regarding U3C A11G A56G U97C U122C A129G, the self-cleavage was 0.55.

As to U3C U70C A95G, the self-cleavage was 2.69.

For the variant U2C U9C A33U A68G A92G C112A, the self-cleavage came to 0.06. As to U3C G15A A62U U122C, the self-cleavage worked out at 0.43.

Turning to U3C A55G A62C, the self-cleavage came to 0.61. In the case of U3C A5G U19C A59C A89G A94G U122C, the self-cleavage amounted to 0.39. Next, U3A C112A A118G U131C: 0; U2C U19C A54G U127C: 0.91; A4G A60G A94G: 1.3. As to U3C A5G U49C A59G A63G A126G, the self-cleavage was 1.31. Turning to U3C A69U A98U, the self-cleavage stood at 0.79. Turning to U2C C6U A64C U87C A94G, the self-cleavage worked out at 1. With A4G A91G A126U, the self-cleavage came to 0.31. As to U2C U19C A24G A60U A82G A95G A98G U132A, the self-cleavage is 0.38. Regarding U2G A63G U97C A110G A111G, the self-cleavage worked out at 0.06.

Turning to U3C U37C A82U, the self-cleavage is 0.48. Under A4G A13U U57A A95U stands 0.47; under U3C A60U A91U, 1.55. In the case of A4G G8A A27G U43A A92G A98U, the self-cleavage came to 1.59. With U2C U9A A24G A33G A114G, the self-cleavage came to 0.05. In the case of U2C A78U A116G, the self-cleavage came to 0.07. Consider U3C C42U A56G A78U A86U A96G A110U, for which the self-cleavage was 0.09. As for A4G U26C U108C, the self-cleavage came to 0.05. Next, A4G A110C A116G: 0.23; A4G A24G U43C A51G A89G: 1.38; U2C U49C A52G: 1.09. Consider A4G U72C A96G U131C, for which the self-cleavage is 0.15. Turning to A4G A24C A47U U108C, the self-cleavage is 0.24. As to U2C U127A U130C, the self-cleavage came to 1.47. With U3C A18G A59G U102A A110U, the self-cleavage is 0.9. Next, U3C U38C A59G G74A C81U: 0.14. For U2C G8A A94G A117G, the self-cleavage came to 0.77. For the variant A4G A18G A67G A134U, the self-cleavage worked out at 0.59. Turning to A4G U26C A116G, the self-cleavage is 1.21. Turning to A4G U19C A52G U70C A78G, the self-cleavage was found to be 0.22.

Turning to U2C A125G A135G, the self-cleavage was 0.69. For A4G A24G A82G, the self-cleavage stood at 0.96. Regarding U2G A51G A91G, the self-cleavage amounted to 0.77.

With A4G A30U U103C A110G U130A, the self-cleavage is 0.07. Take A4G U103C A135G A140G: the self-cleavage worked out at 1.52. For the variant U2G U72C A118G, the self-cleavage is 0.42.

As to A4G A18U U49C A52G, the self-cleavage is 1.16. Next, U3C A51G A82U A89U A116G: 0.12. In the case of U3C U9C A95G C121A, the self-cleavage is 2.23. Next, U2G A51G U57C A90G G115C U139C: 0.02. As for A5C A22G A82G, the self-cleavage came to 0.54.

Regarding U3C A52U U72C, the self-cleavage is 0.19. As for U3C A30C U39A U49C A111G A118G U132C, the self-cleavage is 0. Under U2C U3C A11U A23U A56G U87G A91G stands 0.04; under U2G U102C U103C, 0; under U3C A59G A78U U131C, 0.64. In the case of A4G A51G A82G, the self-cleavage was 0.32. As for A4G A30G A60G A78U A86C A114G A129G, the self-cleavage was determined as 0.06. Next, A4G A47G A52C A55G G83A: 0.64; U2C U70C A86U U108A: 0; U2C U103C A118G: 0.62.

Consider A4G A67G A92G U120C, for which the self-cleavage was found to be 1.16.

For the variant A4G A89U A95G A134G A135G, the self-cleavage amounted to 1.89. Next, U2C U39G A60G: 1.1. A4G U39C A47G: the self-cleavage came to 1.17.

As for A4G A30G G65A A96G, the self-cleavage stood at 1.12. In the case of U3C A18U A47G A91U U122C, the self-cleavage turned out to be 1.78. Next, A4G G53A U127C: 1; U3A A33G G48A: 0.88; U2C U9A C34U A60G U87C U100A: 0.57.

On to U3A A51G A78G A89U, for which the self-cleavage came out at 0.21. In the case of U2C U9C U49C G136A, the self-cleavage was determined as 1.1. Regarding U2C U43C A96G, the self-cleavage amounted to 1.61. As to U3C A111G A140U, the self-cleavage is 0.01. Consider A4G U19C U39C A114U, for which the self-cleavage amounted to 0.16. Take A4G A51G C113U: the self-cleavage was found to be 0.09. As for U3C G15A A18U C25A A51U A117G U122A, the self-cleavage was 0.92. On to U3G A4G A27G, for which the self-cleavage was 0.54. As for A4G U43C A78U, the self-cleavage amounted to 0.16. With U2C U9C A52G A111G, the self-cleavage was found to be 0.05. Regarding U2C U19A A95G, the self-cleavage was 1. With U3C A5G U19C G84U A90G, the self-cleavage was 0.82. Regarding A4G A67G A94G, the self-cleavage is 0.94.

Take A4G A78G A96U A134G: the self-cleavage came out at 0.39. Under U2C U19C U37A A89G U97C stands 1.39; under A4G U43A A91G U103C A110G U130C, 0.02. Turning to U2C U38C U70C A95G A140G, the self-cleavage came to 0.83.

On to A4G A24G A68G, for which the self-cleavage is 0.97.

Regarding A4G A18U A51U A67G, the self-cleavage was 0.92.

As to U2C U87C G93A, the self-cleavage was 1.5. Consider U3C U12C U19C A82U A92G A126G U131C, for which the self-cleavage came to 0.09. In the case of A4G U39C A56G A66G U122C, the self-cleavage amounted to 1.3. For A4G U9C A54U A89G A96G U124C, the self-cleavage was 0.55.

On to U3C A90G A94U, for which the self-cleavage came out at 0.85.

On to U3C A24G A69G A117G G138A, for which the self-cleavage was found to be 1.45.

Consider U2C U9C C32U U43G A116G U130C, for which the self-cleavage was found to be 0.35. Consider U3C A47G U49C A59G A64G U122A, for which the self-cleavage stood at 0.49. On to U3C A68G U132C, for which the self-cleavage is 1.07. For the variant U3A A33G A111G, the self-cleavage is 0.01. Next, U3C U19A A63G A118G: 1.04; U2C U131C U133C: 1.26.

As to U3C A30G A47G A86U U87C U132A, the self-cleavage was 0.92.

Turning to U2C U39A A91G G138C, the self-cleavage was found to be 0.74. Next, U2C U19C G115A: 0. Regarding U2C C40U A110C, the self-cleavage was 0.14.

Turning to U3C A69G A110G, the self-cleavage was determined as 0.18. Consider A4G A5G U37C A78G A135G, for which the self-cleavage is 1.04. Next, A4G A5U A22G A96G A116G: 0.92. Next, U2G A22G A30G U127C U132A: 0.72; U3C U19C A86G U122G: 2.29. In the case of U2C U57A U139C, the self-cleavage stood at 0.71.

U2C U38C U70C A91G U103A U122C: the self-cleavage was 0.07. Take U3C U38C A47G A134G: the self-cleavage is 0.79. Take U3C U37C U87C A118G: the self-cleavage was found to be 1.42. In the case of U2C A69U A111G G136A, the self-cleavage amounted to 0.04. With U2C U3A A60U, the self-cleavage was determined as 0.75.

Turning to U3G A68G A78G, the self-cleavage is 0.27. Consider U3C U12A G74U, for which the self-cleavage stood at 0.2. For U3C A5G U43C U57C A62G A68G, the self-cleavage turned out to be 0.87. As for U2C U49C A67G A96G, the self-cleavage is 1.4. Turning to U3C C40U U97C, the self-cleavage came to 0.8.

In the case of A4G A62G A64G C76G A110G, the self-cleavage came to 0.1. For A4G A78G A126G, the self-cleavage is 0.52.
